# Marks after values point to notes of the source that are not given here.
# B1: mAb37639: fully human anti-GLP1R antagonist antibody; HCVR/LCVR SEQ ID NOs: 22/30; heavy/light chain 36/38 (antibody)
# heavy: EVQLLESGGGVVQPGGSLRLSCVASGFTFSSYAMSWVRQAPGKGLEWVSSISGSGGSTDNADSVKGRFTISRDNSKNTLYLQMNSLRAEDTAVYYCAKDRITIFGVVLNGAFDIWGQGTMVTVSSASTKGPSVFPLAPCSRSTSESTAALGCLVKDYFPEPVTVSWNSGALTSGVHTFPAVLQSSGLYSLSSVVTVPSSSLGTKTYTCNVDHKPSNTKVDKRV[human IgG4 Fc with S228P (EU numbers) not printed]
# light: DIQMTQSPSSLSASVGDRVTITCQASQDIRNYLNWYQQKPGKAPKLLIYDASNLETGVPSRFSGSGSGTDFTFTISSLQPEDIATYFCQQYDNLFTFGPGTKVDIKRTVAAPSVFIFPPSDEQLKSGTASVVCLLNNFYPREAKVQWKVDNALQSGNSQESVTEQDSKDSTYSLSSTLTLSKADYEKHKVYACEVTHQGLSSPVTKSFNRGEC
# notes: fully human anti-GLP1R antagonist antibody; heavy/light chain 36/38
# Assays:
# [1] = molecular target: T1, hGLP1R-MMH (N-terminal region of human GLP1R-MMH) (Homo sapiens, UniProt P43220); assay: SPR (Biacore 4000) binding of captured GLP1R mAbs to hGLP1R-MMH
# T1 construct: the N-terminal region of human GLP1R-MMH (hGLP1R-MMH)
# Experimental: (§1) The equilibrium dissociation constant (KD) for GLP1R binding to selected GLP1R monoclonal antibodies (mAbs) was determined using a real-time surface plasmon resonance biosensor using a Biacore 4000 instrument. All binding studies were performed in 10 mM HEPES, 150 mM NaCl, 3 mM EDTA, and 0.05% v/v Surfactant Tween-20, pH 7.4 (HBS-ET) running buffer at 25° C. and 37° C. The Biacore CM5 sensor chip surface was first derivatized by amine coupling with human Fc specific mouse mAb to capture different GLP1R mAbs. Different concentrations (100, 25, and 6.25 nM) of the N-terminal region of human GLP1R-MMH (hGLP1R-MMH; SEQ ID NO: 59), human GLP1R expressed with mouse IgG2a Fc (hGLP1R-mFc; SEQ ID NO: 63), an in-line fusion protein of human desA-GLP1 and GLP1R-MMH (hdesA-GLP1_GLP1R-MMH; SEQ ID NO: 62), Macaca fascicularis GLP1R-MMH (mfGLP1R-MMH; SEQ ID NO: 60) or 100 nM mouse GLP1R-MMH (mGLP1R-MMH; SEQ ID NO: 61) prepared in HBS-ET running buffer were injected over the GLP1R mAb captured surface for 150 sec at a flow rate of 30 μL/min and their dissociation in HBS-ET running buffer was monitored for 10 minutes. At the end of each cycle, the GLP1R mAb capture surface was regenerated using a 12 sec injection of 20 mM phosphoric acid.
# (§2) The association rate (ka) and dissociation rate (Kd) were determined by fitting the real-time binding sensorgrams to a 1:1 binding model with mass transport limitation using Scrubber 2.0 c curve-fitting software. Binding dissociation equilibrium constant (KD) and dissociative half-life (t½) were calculated from the kinetic rates as: […]
# GLP1R humanized mice = assay: Exendin-4 induced hypoglycemia in GLP1R humanized mice (Example 5); assay type: in vivo; conditions: for Blood glucose levels / Percent differences in blood glucose levels from Group 1: Exendin-4 challenge, antibody 25 mg/kg s.c. on Day 0, mean
# Experimental: For the study, 35 mice were randomly divided into one group of fourteen mice and three groups of seven mice. On Day 0, the group of fourteen animals (later divided into Groups 1 and 2) were administered subcutaneously (s.c.) with a mIgG2 isotype control antibody (referred to as Isotype control, dose of 25 mg/kg), whereas the other three groups (n=7/group) were each administered s.c. (dose of 25 mg/kg) with mAb36986 (Group 3), mAb37639 (Group 4), or mAb37645 (Group 5). The next day (Day 1), the isotype control administered fourteen animals were randomly divided into two groups (Group 1 and 2) of seven mice each. At 0 minute on Day 1, animals in Group 1 were administered intraperitoneally (i.p.) with saline, whereas animals in Group 2 were administered i.p. with Exendin-4 (dose of 0.01 mg/kg). At the same time point, animals in Groups 3, 4, and 5 were administered i.p. with Exendin-4 (dose of 0.01 mg/kg). For all animals, blood glucose levels were measured with a handheld glucometer immediately before saline or Exendin-4 administration, and 15, 30, 60, and 120 minutes post administration. All animals remained in their assigned groups until the study completion on Day 67. The Exendin-4 challenge performed on Day 1 was repeated on Days 8, 22, 46, and 67. Mean±SEM of percent differences in blood glucose levels from Group 1 at each time point was calculated for each group and shown in Table 16. Statistical analyses were performed by two-way ANOVA followed by Bonferroni post-hoc tests, comparing Groups 2, 3, 4, and 5 to Group 1.
# [2] = molecular target: T2, mGLP1R-MMH (mouse GLP1R-MMH) (Mus musculus, UniProt O35659); assay: SPR (Biacore 4000) binding of captured GLP1R mAbs to mGLP1R-MMH
# T2 construct: 100 nM mouse GLP1R-MMH (mGLP1R-MMH)
# Experimental: as §1, §2
# [3] = molecular target: T3, hGLP1R-mFc (human GLP1R expressed with mouse IgG2a Fc) (Homo sapiens, UniProt P43220); assay: SPR (Biacore 4000) binding of captured GLP1R mAbs to hGLP1R-mFc
# T3 construct: human GLP1R expressed with mouse IgG2a Fc (hGLP1R-mFc)
# Experimental: as §1, §2
# [4] = molecular target: T4, hdesA-GLP1_GLP1R-MMH (in-line fusion protein of human desA-GLP1 and GLP1R-MMH) (Homo sapiens, UniProt P43220); assay: SPR (Biacore 4000) binding of captured GLP1R mAbs to hdesA-GLP1_GLP1R-MMH
# T4 construct: an in-line fusion protein of human desA-GLP1 and GLP1R-MMH (hdesA-GLP1_GLP1R-MMH)
# Experimental: as §1, §2
# T1 sequence (P43220 with tags, fused parts or gaps): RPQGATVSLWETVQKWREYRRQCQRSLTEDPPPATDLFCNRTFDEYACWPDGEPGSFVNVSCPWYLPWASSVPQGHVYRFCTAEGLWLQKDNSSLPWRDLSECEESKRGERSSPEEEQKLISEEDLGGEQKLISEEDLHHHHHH
# T2 sequence (O35659 with tags, fused parts or gaps): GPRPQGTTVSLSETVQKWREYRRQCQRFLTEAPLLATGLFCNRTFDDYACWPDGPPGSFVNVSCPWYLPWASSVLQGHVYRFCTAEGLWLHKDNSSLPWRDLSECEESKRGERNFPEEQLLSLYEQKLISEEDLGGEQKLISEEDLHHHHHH
# T3 sequence (P43220 with tags, fused parts or gaps): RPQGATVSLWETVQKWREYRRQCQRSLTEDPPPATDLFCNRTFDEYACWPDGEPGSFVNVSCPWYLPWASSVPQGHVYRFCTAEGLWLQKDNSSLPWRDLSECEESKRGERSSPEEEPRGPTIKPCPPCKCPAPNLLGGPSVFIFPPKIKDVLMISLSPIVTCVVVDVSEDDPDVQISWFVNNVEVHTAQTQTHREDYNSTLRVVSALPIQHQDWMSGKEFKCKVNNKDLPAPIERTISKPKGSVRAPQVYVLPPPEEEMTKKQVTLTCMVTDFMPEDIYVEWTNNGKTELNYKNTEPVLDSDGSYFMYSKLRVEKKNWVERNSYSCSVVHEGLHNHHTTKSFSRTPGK
# T4 sequence (P43220 with tags, fused parts or gaps): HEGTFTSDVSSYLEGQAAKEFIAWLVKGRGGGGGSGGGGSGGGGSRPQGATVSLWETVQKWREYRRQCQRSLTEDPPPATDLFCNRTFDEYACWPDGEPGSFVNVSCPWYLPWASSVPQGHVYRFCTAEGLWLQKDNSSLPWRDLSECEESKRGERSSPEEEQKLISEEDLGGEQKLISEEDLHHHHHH
molecule,measurement,setting,value
B1,ka,[1]; 25° C.,393000 M⁻¹ s⁻¹
same,kd,[1]; 25° C.,0.000186 s⁻¹
same,ka,[1]; 37° C.,668000 M⁻¹ s⁻¹
same,kd,[1]; 37° C.,0.000422 s⁻¹
same,glucose normalizing effects during Exendin-4 challenges,"GLP1R humanized mice; 25 mg/kg s.c. on Day 0, challenges on Days 1, 8, 22, 46, 67",glucose normalizing effects only on Days 1 and 8
same,Blood glucose levels,"GLP1R humanized mice; Day 1, 0 min",215 mg/dL
same,Percent differences in blood glucose levels from Group 1,"GLP1R humanized mice; Day 1, 0 min",12%
same,Blood glucose levels,"GLP1R humanized mice; Day 1, 15 min",233 mg/dL
same,Percent differences in blood glucose levels from Group 1,"GLP1R humanized mice; Day 1, 15 min",−9%
same,Blood glucose levels,"GLP1R humanized mice; Day 1, 30 min",222 mg/dL
same,Percent differences in blood glucose levels from Group 1,"GLP1R humanized mice; Day 1, 30 min",−13%
same,Blood glucose levels,"GLP1R humanized mice; Day 1, 60 min",226 mg/dL
same,Percent differences in blood glucose levels from Group 1,"GLP1R humanized mice; Day 1, 60 min",−6%
same,Blood glucose levels,"GLP1R humanized mice; Day 1, 120 min",212 mg/dL
same,Percent differences in blood glucose levels from Group 1,"GLP1R humanized mice; Day 1, 120 min",−7%
same,Blood glucose levels,"GLP1R humanized mice; Day 8, 0 min",214 mg/dL
same,Percent differences in blood glucose levels from Group 1,"GLP1R humanized mice; Day 8, 0 min",1%
same,Blood glucose levels,"GLP1R humanized mice; Day 8, 15 min",223 mg/dL
same,Percent differences in blood glucose levels from Group 1,"GLP1R humanized mice; Day 8, 15 min",−13%
same,Blood glucose levels,"GLP1R humanized mice; Day 8, 30 min",216 mg/dL
same,Percent differences in blood glucose levels from Group 1,"GLP1R humanized mice; Day 8, 30 min",−12%
same,Blood glucose levels,"GLP1R humanized mice; Day 8, 60 min",221 mg/dL
same,Percent differences in blood glucose levels from Group 1,"GLP1R humanized mice; Day 8, 60 min",−9%
same,Blood glucose levels,"GLP1R humanized mice; Day 8, 120 min",215 mg/dL
same,Percent differences in blood glucose levels from Group 1,"GLP1R humanized mice; Day 8, 120 min",2%
same,Blood glucose levels,"GLP1R humanized mice; Day 22, 0 min",199 mg/dL
same,Percent differences in blood glucose levels from Group 1,"GLP1R humanized mice; Day 22, 0 min",−5%
same,Blood glucose levels,"GLP1R humanized mice; Day 22, 15 min",216* mg/dL
same,Percent differences in blood glucose levels from Group 1,"GLP1R humanized mice; Day 22, 15 min",−19* %
same,Blood glucose levels,"GLP1R humanized mice; Day 22, 30 min",199** mg/dL
same,Percent differences in blood glucose levels from Group 1,"GLP1R humanized mice; Day 22, 30 min",−21* %
same,Blood glucose levels,"GLP1R humanized mice; Day 22, 60 min",188* mg/dL
same,Percent differences in blood glucose levels from Group 1,"GLP1R humanized mice; Day 22, 60 min",−21* %
same,Blood glucose levels,"GLP1R humanized mice; Day 22, 120 min",203 mg/dL
same,Percent differences in blood glucose levels from Group 1,"GLP1R humanized mice; Day 22, 120 min",−2%
same,Percent differences in blood glucose levels from Group 1,"GLP1R humanized mice; Day 46, 0 min",1%
same,Blood glucose levels,"GLP1R humanized mice; Day 46, 15 min",184** mg/dL
same,Percent differences in blood glucose levels from Group 1,"GLP1R humanized mice; Day 46, 15 min",−25%
same,Blood glucose levels,"GLP1R humanized mice; Day 46, 30 min",171*** mg/dL
same,Percent differences in blood glucose levels from Group 1,"GLP1R humanized mice; Day 46, 30 min",−32** %
same,Blood glucose levels,"GLP1R humanized mice; Day 46, 60 min",165** mg/dL
same,Percent differences in blood glucose levels from Group 1,"GLP1R humanized mice; Day 46, 60 min",−27* %
same,Blood glucose levels,"GLP1R humanized mice; Day 46, 120 min",199 mg/dL
same,Percent differences in blood glucose levels from Group 1,"GLP1R humanized mice; Day 46, 120 min",7%
same,Blood glucose levels,"GLP1R humanized mice; Day 67, 0 min",196 mg/dL
same,Percent differences in blood glucose levels from Group 1,"GLP1R humanized mice; Day 67, 0 min",1%
same,Blood glucose levels,"GLP1R humanized mice; Day 67, 15 min",165**** mg/dL
same,Percent differences in blood glucose levels from Group 1,"GLP1R humanized mice; Day 67, 15 min",−38** %
same,Blood glucose levels,"GLP1R humanized mice; Day 67, 30 min",146**** mg/dL
same,Percent differences in blood glucose levels from Group 1,"GLP1R humanized mice; Day 67, 30 min",−44*** %
same,Blood glucose levels,"GLP1R humanized mice; Day 67, 60 min",149*** mg/dL
same,Percent differences in blood glucose levels from Group 1,"GLP1R humanized mice; Day 67, 60 min",−37** %
same,Blood glucose levels,"GLP1R humanized mice; Day 67, 120 min",186 mg/dL
same,Percent differences in blood glucose levels from Group 1,"GLP1R humanized mice; Day 67, 120 min",−18%
same,ka,[2]; 25° C.,269000 M⁻¹ s⁻¹
same,kd,[2]; 25° C.,0.00454 s⁻¹
same,ka,[2]; 37° C.,435000 M⁻¹ s⁻¹
same,kd,[2]; 37° C.,0.00959 s⁻¹
same,ka,[3]; 25° C.,65900 M⁻¹ s⁻¹
same,kd,[3]; 25° C.,0.000156 s⁻¹
same,ka,[3]; 37° C.,101000 M⁻¹ s⁻¹
same,kd,[3]; 37° C.,0.000354 s⁻¹
same,ka,[4]; 25° C.,11900 M⁻¹ s⁻¹
same,kd,[4]; 25° C.,0.00019 s⁻¹
same,ka,[4]; 37° C.,17100 M⁻¹ s⁻¹
same,kd,[4]; 37° C.,0.00127 s⁻¹

# Source: patent US12421317B2, “Polynucleotides encoding anti-glucagon-like peptide 1 receptor (GLP1R) antagonist antibodies” (Regeneron Pharmaceuticals, Inc., priority 2020, dated 2025)
